{
  "source": "paper PMC4336329",
  "about": "(PLoS ONE, 2015)",
  "note": "The whole screen tested about 310,000 compounds, of which about 14,000 (4.5%) showed an effect of 50% or more. The effect is printed as a negative number. This is one part of the list.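 Note: peak tail current of the secondary pulse compared with the same well before compound.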",
  "data": [
    {"biological_target": "human ether-à-go-go-related gene (hERG) potassium channel (human, UniProt Q12809)", "sequence (Q12809 whole entry, looked up)": "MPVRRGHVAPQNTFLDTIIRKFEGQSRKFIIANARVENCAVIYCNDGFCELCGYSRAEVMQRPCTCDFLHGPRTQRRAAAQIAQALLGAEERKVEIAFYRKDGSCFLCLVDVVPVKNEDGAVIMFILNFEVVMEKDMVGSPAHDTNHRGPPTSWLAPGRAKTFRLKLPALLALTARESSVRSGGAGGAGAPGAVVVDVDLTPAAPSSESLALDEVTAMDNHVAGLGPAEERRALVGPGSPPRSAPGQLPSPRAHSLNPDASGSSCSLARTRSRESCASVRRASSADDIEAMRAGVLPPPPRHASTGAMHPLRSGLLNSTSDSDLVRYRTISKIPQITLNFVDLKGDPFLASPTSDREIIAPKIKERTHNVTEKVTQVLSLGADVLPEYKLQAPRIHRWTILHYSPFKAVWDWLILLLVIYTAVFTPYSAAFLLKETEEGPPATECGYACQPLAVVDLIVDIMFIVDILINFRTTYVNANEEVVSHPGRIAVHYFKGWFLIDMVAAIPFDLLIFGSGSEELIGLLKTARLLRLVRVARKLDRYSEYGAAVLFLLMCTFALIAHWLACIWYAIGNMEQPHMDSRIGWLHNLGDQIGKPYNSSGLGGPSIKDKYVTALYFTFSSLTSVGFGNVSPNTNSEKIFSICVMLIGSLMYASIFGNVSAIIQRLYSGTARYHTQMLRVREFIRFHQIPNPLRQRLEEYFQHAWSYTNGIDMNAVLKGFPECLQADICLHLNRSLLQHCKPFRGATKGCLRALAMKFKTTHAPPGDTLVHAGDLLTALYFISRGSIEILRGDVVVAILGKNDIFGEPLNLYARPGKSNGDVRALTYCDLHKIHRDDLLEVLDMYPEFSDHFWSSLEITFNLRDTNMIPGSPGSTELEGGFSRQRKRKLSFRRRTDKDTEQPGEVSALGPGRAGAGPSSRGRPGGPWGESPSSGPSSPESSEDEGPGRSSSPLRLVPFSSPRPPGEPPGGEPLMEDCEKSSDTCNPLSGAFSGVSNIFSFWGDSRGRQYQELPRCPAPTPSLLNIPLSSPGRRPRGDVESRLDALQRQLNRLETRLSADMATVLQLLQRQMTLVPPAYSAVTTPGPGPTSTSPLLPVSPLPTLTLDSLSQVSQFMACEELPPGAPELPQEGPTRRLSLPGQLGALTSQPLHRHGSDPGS", "assay": "primary screen, population patch clamp on CHO cells stably expressing hERG", "units": {"hERG current change (%, negative = inhibition) at 10uM": "%"}, "values": [
      {"smiles": "CN(Cc1ccccc1)c1nnc(N)s1", "hERG current change (%, negative = inhibition) at 10uM": 8.4},
      {"smiles": "CC(C)C(=O)Nc1ccc2c(c1)Cc1cc(NC(=O)C(C)C)ccc1-2", "hERG current change (%, negative = inhibition) at 10uM": 25.5},
      {"smiles": "COc1ccc(C2C(C(C)=O)=C(C)N=c3s/c(=C\\c4ccco4)c(=O)n32)c(OC)c1", "note": "(stereo not drawn)", "hERG current change (%, negative = inhibition) at 10uM": -27.3},
      {"smiles": "CC(=O)N1CCc2cc(S(=O)(=O)CCC(=O)N3CCN(c4ccccc4)CC3)ccc21", "hERG current change (%, negative = inhibition) at 10uM": 7.15},
      {"smiles": "CCCNS(=O)(=O)/C=C/c1ccccc1", "hERG current change (%, negative = inhibition) at 10uM": 2.98},
      {"smiles": "Fc1ccc(NC(=S)Nc2ccccc2N2CCOCC2)cc1Cl", "hERG current change (%, negative = inhibition) at 10uM": -10.7},
      {"smiles": "COc1ccc2c(c1)sc1nc(-c3ccccc3)cn12", "hERG current change (%, negative = inhibition) at 10uM": -6.02},
      {"smiles": "COc1ccc(/C=C/c2nnc(NC(=O)COc3ccccc3)s2)cc1", "hERG current change (%, negative = inhibition) at 10uM": 20.5},
      {"smiles": "O=c1cnnc(Nc2ccc(F)cc2)[nH]1", "hERG current change (%, negative = inhibition) at 10uM": 23.3},
      {"smiles": "COc1cc(CC(=O)Nc2nc(C)cs2)cc(OC)c1OC", "hERG current change (%, negative = inhibition) at 10uM": 5.84},
      {"smiles": "COc1ccc(NC(=O)C2C3C=CC4(CN(Cc5cccnc5)C(=O)C24)O3)c(OC)c1", "note": "(stereo not drawn)", "hERG current change (%, negative = inhibition) at 10uM": 13.9},
      {"smiles": "O=C(c1cccnc1)N1N=C(C2CC2)CC1(O)C(F)(F)F", "note": "(stereo not drawn)", "hERG current change (%, negative = inhibition) at 10uM": 17.2},
      {"smiles": "COc1ccc(CN2CC(C(=O)NCCCN3CCN(Cc4ccccc4)CC3)CC2=O)cc1", "note": "(stereo not drawn)", "hERG current change (%, negative = inhibition) at 10uM": -7.06},
      {"smiles": "O=C1CC(=O)NC(SCC(=O)Nc2ccccc2[N+](=O)[O-])=N1", "hERG current change (%, negative = inhibition) at 10uM": 15.4},
      {"smiles": "CCOc1ccccc1NC(=S)N(CCC(C)C)C1CCN(C(C)=O)CC1", "hERG current change (%, negative = inhibition) at 10uM": 0.567},
      {"smiles": "CN(CC(=O)Nc1ccccc1Br)C(=O)CNC(=O)c1cccs1", "hERG current change (%, negative = inhibition) at 10uM": -7.41},
      {"smiles": "Cc1ccccc1CSc1nc2n(n1)C(c1cccs1)C1=C(CCCC1=O)N2", "note": "(stereo not drawn)", "hERG current change (%, negative = inhibition) at 10uM": 0.577},
      {"smiles": "Cc1ccc(-c2noc(CN3CCN(c4ccccc4F)CC3)n2)cc1", "hERG current change (%, negative = inhibition) at 10uM": 8.71},
      {"smiles": "CCCCc1ccc(CC2S/C(=C(\\C#N)C(=O)N3CCOCC3)N(c3ccccc3)C2=O)cc1", "note": "(stereo not drawn)", "hERG current change (%, negative = inhibition) at 10uM": -12.1},
      {"smiles": "CC(=O)NCCCC(=O)NC(CCC(=O)OCc1ccccc1)C(=O)OCc1ccccc1", "note": "(stereo not drawn)", "hERG current change (%, negative = inhibition) at 10uM": -13.7},
      {"smiles": "CN(CC(=O)N1CCCc2c1c(=O)oc1ccc(O)cc21)Cc1ccccc1", "hERG current change (%, negative = inhibition) at 10uM": -67.4},
      {"smiles": "O=C(/C=C/Nc1ccccc1F)c1cccs1", "hERG current change (%, negative = inhibition) at 10uM": 1.08},
      {"smiles": "Cn1c(=O)c(-c2ccccc2[N+](=O)[O-])c(Cl)c2ccccc21", "hERG current change (%, negative = inhibition) at 10uM": -5.62},
      {"smiles": "Cc1nnc2n1CCCCC2", "hERG current change (%, negative = inhibition) at 10uM": 20.6},
      {"smiles": "COC(=O)c1sccc1NC(=S)Nc1cc(OC)ccc1OC", "hERG current change (%, negative = inhibition) at 10uM": 30.4},
      {"smiles": "Cc1cnc(C(=O)OCC(=O)Nc2cc(Cl)cc(Cl)c2)cn1", "hERG current change (%, negative = inhibition) at 10uM": 19.5},
      {"smiles": "O=C(c1cccs1)N1CCN(c2ccc([N+](=O)[O-])cc2F)CC1", "hERG current change (%, negative = inhibition) at 10uM": -56.8},
      {"smiles": "O=C(CNC(=O)C12CC3CC(CC(C3)C1)C2)NC1=NCCS1", "hERG current change (%, negative = inhibition) at 10uM": 6.83},
      {"smiles": "CSCC[C@H](N)C(=O)N1CCC(C(=O)N[C@@H](C)C(=O)NCc2ccc(F)cc2)CC1", "hERG current change (%, negative = inhibition) at 10uM": 3.55},
      {"smiles": "CCOC(=O)CON1C(=O)C(=O)N(OCC(=O)OCC)[C@H]2CCCC[C@H]21", "hERG current change (%, negative = inhibition) at 10uM": 12.2},
      {"smiles": "N#Cc1cc(-c2ccccc2)cnc1Cl", "hERG current change (%, negative = inhibition) at 10uM": -2.98},
      {"smiles": "CCOC(=O)C(C)Oc1cccc2c(=O)n(CC(=O)N3CCc4ccccc43)ccc12", "note": "(stereo not drawn)", "hERG current change (%, negative = inhibition) at 10uM": -9.19},
      {"smiles": "O=[N+]([O-])c1cccc(C(=S)N2CCN(c3ccc(F)cc3)CC2)c1", "hERG current change (%, negative = inhibition) at 10uM": -15.9},
      {"smiles": "Cc1ccc(CCNC(=O)C2CCC(CNc3c(N4CCCC4)c(=O)c3=O)CC2)cc1", "note": "(stereo not drawn)", "hERG current change (%, negative = inhibition) at 10uM": 15.1},
      {"smiles": "O=C(C1=NN[C@@H]2C(=O)N(c3cccc(F)c3)C(=O)[C@H]12)c1cnccn1", "hERG current change (%, negative = inhibition) at 10uM": 6.16},
      {"smiles": "COCC(C)N=C1NN=C(c2cc(C)n(Cc3ccccc3Cl)c2C)CS1", "note": "(stereo not drawn)", "hERG current change (%, negative = inhibition) at 10uM": -9.9},
      {"smiles": "COc1ccc(S(=O)(=O)NCc2csc(-c3cccnc3)n2)cc1", "hERG current change (%, negative = inhibition) at 10uM": -1.58},
      {"smiles": "CCCCCC1CC(CC/C(C)=N/NC(N)=O)C(=O)O1", "note": "(stereo not drawn)", "hERG current change (%, negative = inhibition) at 10uM": -23.2},
      {"smiles": "C=CCn1c(SCC(=O)NC2CCCCC2)nnc1C1CCCCC1", "hERG current change (%, negative = inhibition) at 10uM": -1.34},
      {"smiles": "O=C(NCCN1CCOCC1)c1ccc2c(c1)N(Cc1ccc(F)cc1)C(=O)c1ccccc1S2(=O)=O", "hERG current change (%, negative = inhibition) at 10uM": 0.647},
      {"smiles": "COC(=O)c1ccccc1NC(=O)c1ccc2c(c1)OCCO2", "hERG current change (%, negative = inhibition) at 10uM": 1.86},
      {"smiles": "O=C(CNC(=O)c1ccc(Cl)c([N+](=O)[O-])c1)OCN1C(=O)c2ccccc2C1=O", "hERG current change (%, negative = inhibition) at 10uM": 13.5},
      {"smiles": "O=C(Nc1cccc(Cl)c1N1CCCC1)c1cccc(-c2cc3ccccc3oc2=O)c1", "hERG current change (%, negative = inhibition) at 10uM": -6.92},
      {"smiles": "CCOC(=O)C1SC2(C(F)(F)F)CC1(O)c1c(C)cc(C)nc1O2", "note": "(stereo not drawn)", "hERG current change (%, negative = inhibition) at 10uM": 5.49},
      {"smiles": "Cc1ccc(C)n1-c1ccc(NC(=O)c2ccccc2)cc1", "hERG current change (%, negative = inhibition) at 10uM": -2.45},
      {"smiles": "CC(C)O.O=C(O)c1cc(S(=O)(=O)Nc2ccc(N3CCCCC3)cc2)ccc1Cl", "hERG current change (%, negative = inhibition) at 10uM": 12.3},
      {"smiles": "CCCn1nc(C(=O)Nc2nc(-c3ccccn3)cs2)c2ccccc2c1=O", "hERG current change (%, negative = inhibition) at 10uM": 0.993},
      {"smiles": "Cc1ccc(-c2nc(N)sc2CC(=O)OCC(=O)NCCC(C)C)cc1", "hERG current change (%, negative = inhibition) at 10uM": -11.9},
      {"smiles": "COc1ccc(N2CCN(c3ccc(S(=O)(=O)N(C(C)C)C(C)C)cn3)CC2)cc1", "hERG current change (%, negative = inhibition) at 10uM": 25.5},
      {"smiles": "COc1ccccc1CNC(=O)c1cccc2c1C(=O)N(Cc1cccnc1)C2", "hERG current change (%, negative = inhibition) at 10uM": -70.1},
      {"smiles": "COc1ccccc1/C=C(/C#N)C(=O)O", "hERG current change (%, negative = inhibition) at 10uM": 18.5},
      {"smiles": "Cc1cc(C)cc(C(=O)NC(CC(N)=O)c2ccc(NCC3CC3)c([N+](=O)[O-])c2)c1", "note": "(stereo not drawn)", "hERG current change (%, negative = inhibition) at 10uM": -30.4},
      {"smiles": "Cc1sc2ncnc(SCC(=O)Nc3ncccc3O)c2c1C", "hERG current change (%, negative = inhibition) at 10uM": -2.81},
      {"smiles": "CC(C)c1ccccc1OCCNC(=O)c1cncc(Br)c1", "hERG current change (%, negative = inhibition) at 10uM": -60.6},
      {"smiles": "CC(=O)Nc1cc(NC(C)=O)ncn1", "hERG current change (%, negative = inhibition) at 10uM": 11.8},
      {"smiles": "CC(=O)Nc1ccccc1-c1nn[nH]n1", "hERG current change (%, negative = inhibition) at 10uM": 0.73},
      {"smiles": "CC(C)NCC(O)c1ccc2ccccc2c1.Cl", "note": "(stereo not drawn)", "hERG current change (%, negative = inhibition) at 10uM": 2.06}
    ]}
  ]
}
